Positions count from the first letter of the chain named. The list shows a part of the results.
T1: RBFOX1 RRM RbFoxmut (Fox-RRM*) (Homo sapiens, UniProt Q9NWB1 109-208, R118D;E147R;N151S;E152T)
T1 sequence: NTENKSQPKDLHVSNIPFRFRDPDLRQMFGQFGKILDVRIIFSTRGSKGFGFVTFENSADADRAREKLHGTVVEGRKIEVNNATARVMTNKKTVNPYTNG

B1: AGGGAGA (DNA:RNA)
RNA: GGGAGACCGGAAUUCAGAUUGUCCAGGGAGAUUAAAUCCCGUCGUAGCCACCA
DNA 1: CAATCTGAATTCCGGTCTCCC
DNA 2: TGGTGGCTACGACGGGATT
B2: CGUAGGU (DNA:RNA)
RNA: B1 RNA with A25C, G27U, G28A, A29G, A31U
DNA 1: CAATCTGAATTCCGGTCTCCC
DNA 2: TGGTGGCTACGACGGGATT
B3: GUACUAG (DNA:RNA)
RNA: GGGAGACCGGAAUUCAGAUUGUCCGUACUAGUUAAAUCCCGUCGUAGCCACCA
DNA 1: CAATCTGAATTCCGGTCTCCC
DNA 2: TGGTGGCTACGACGGGATT
B4: GUAAAUU (DNA:RNA)
RNA: B3 RNA with C28A, U29A, A30U, G31U
DNA 1: CAATCTGAATTCCGGTCTCCC
DNA 2: TGGTGGCTACGACGGGATT
B5: GGCGGGG (DNA:RNA)
RNA: B1 RNA with A25G, G27C, A29G, A31G
DNA 1: CAATCTGAATTCCGGTCTCCC
DNA 2: TGGTGGCTACGACGGGATT
B6: ACGAGGU (DNA:RNA)
RNA: B1 RNA with G26C, G28A, A29G, A31U
DNA 1: CAATCTGAATTCCGGTCTCCC
DNA 2: TGGTGGCTACGACGGGATT
B7: GUCUUAU (DNA:RNA)
RNA: B3 RNA with A27C, C28U, G31U
DNA 1: CAATCTGAATTCCGGTCTCCC
DNA 2: TGGTGGCTACGACGGGATT
B8: CAGAGAC (DNA:RNA)
RNA: B1 RNA with A25C, G26A, G28A, A29G, G30A, A31C
DNA 1: CAATCTGAATTCCGGTCTCCC
DNA 2: TGGTGGCTACGACGGGATT
B9: GAUAAUA (DNA:RNA)
RNA: B1 RNA with A25G, G26A, G27U, G28A, G30U
DNA 1: CAATCTGAATTCCGGTCTCCC
DNA 2: TGGTGGCTACGACGGGATT
B10: GAACCUC (DNA:RNA)
RNA: B3 RNA with U26A, U29C, A30U, G31C
DNA 1: CAATCTGAATTCCGGTCTCCC
DNA 2: TGGTGGCTACGACGGGATT
B11: AACAUGU (DNA:RNA)
RNA: B1 RNA with G26A, G27C, G28A, A29U, A31U
DNA 1: CAATCTGAATTCCGGTCTCCC
DNA 2: TGGTGGCTACGACGGGATT
B12: GUUGCAA (DNA:RNA)
RNA: B3 RNA with A27U, C28G, U29C, G31A
DNA 1: CAATCTGAATTCCGGTCTCCC
DNA 2: TGGTGGCTACGACGGGATT
B13: UUCAGAU (DNA:RNA)
RNA: B3 RNA with G25U, A27C, C28A, U29G, G31U
DNA 1: CAATCTGAATTCCGGTCTCCC
DNA 2: TGGTGGCTACGACGGGATT
B14: GAGCUCU (DNA:RNA)
RNA: B3 RNA with U26A, A27G, A30C, G31U
DNA 1: CAATCTGAATTCCGGTCTCCC
DNA 2: TGGTGGCTACGACGGGATT
B15: UACUAUA (DNA:RNA)
RNA: B1 RNA with A25U, G26A, G27C, G28U, G30U
DNA 1: CAATCTGAATTCCGGTCTCCC
DNA 2: TGGTGGCTACGACGGGATT
B16: UUCGAAC (DNA:RNA)
RNA: B1 RNA with A25U, G26U, G27C, G30A, A31C
DNA 1: CAATCTGAATTCCGGTCTCCC
DNA 2: TGGTGGCTACGACGGGATT
B17: AGAUAGG (DNA:RNA)
RNA: B1 RNA with G27A, G28U, A31G
DNA 1: CAATCTGAATTCCGGTCTCCC
DNA 2: TGGTGGCTACGACGGGATT
B18: AUAAAUU (DNA:RNA)
RNA: B1 RNA with G26U, G27A, G28A, G30U, A31U
DNA 1: CAATCTGAATTCCGGTCTCCC
DNA 2: TGGTGGCTACGACGGGATT
B19: GCCACGC (DNA:RNA)
RNA: B1 RNA with A25G, G26C, G27C, G28A, A29C, A31C
DNA 1: CAATCTGAATTCCGGTCTCCC
DNA 2: TGGTGGCTACGACGGGATT
B20: GUUUCGU (DNA:RNA)
RNA: B3 RNA with A27U, C28U, U29C, A30G, G31U
DNA 1: CAATCTGAATTCCGGTCTCCC
DNA 2: TGGTGGCTACGACGGGATT

Target: T1, RBFOX1 RRM RbFoxmut (Fox-RRM*)
Assay: EMSA; HiTS-Eq, 1 nM pool, 10 min; buffer printed only for the single-RNA assays: 10 mM Tris pH 7.5, 150 mM NaCl, 3.4 mM EDTA, 0.001% NP-40, 30 C
Conditions: tags: His6 N-terminal (pET28a); label: 5' 32P
In short: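 Purified RbFox RRM, wild type or mutant, was incubated for 10 min in 50 µL with 1 nM of a 5′-radiolabelled RNA pool carrying 7 randomized nucleotides, whose flanks were annealed to DNA oligonucleotides, over a series of increasing protein concentrations. Unbound RNA was resolved on 8% native PAGE, cut out, reverse-transcribed, barcoded by PCR and sequenced on an Illumina HiSeq 2500. Relative association constants were derived from changes in read counts for each RNA species versus the control reaction and normalised to the cognate motif.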

| Binder | binding signal |
| --- | --- |
| B1 | 0.124 KA relative to UGCAUGU |
| B2 | 0.142 KA relative to UGCAUGU |
| B3 | 0.124 KA relative to UGCAUGU |
| B4 | 0.097 KA relative to UGCAUGU |
| B5 | 0.0647 KA relative to UGCAUGU |
| B6 | 0.11 KA relative to UGCAUGU |
| B7 | 0.103 KA relative to UGCAUGU |
| B8 | 0.0641 KA relative to UGCAUGU |
| B9 | 0.0443 KA relative to UGCAUGU |
| B10 | 0.0711 KA relative to UGCAUGU |
| B11 | 0.0875 KA relative to UGCAUGU |
| B12 | 0.0739 KA relative to UGCAUGU |
| B13 | 0.0764 KA relative to UGCAUGU |
| B14 | 0.064 KA relative to UGCAUGU |
| B15 | 0.13 KA relative to UGCAUGU |
| B16 | 0.0677 KA relative to UGCAUGU |
| B17 | 0.115 KA relative to UGCAUGU |
| B18 | 0.0977 KA relative to UGCAUGU |
| B19 | 0.0948 KA relative to UGCAUGU |
| B20 | 0.233 KA relative to UGCAUGU |

Reference: article PMC9911399, “Two distinct binding modes provide the RNA-binding protein RbFox with extraordinary sequence specificity”
